Data as given in the supplement of paper PMC9446081.
Screen size: about 39,000 compounds; about 220 (0.56%) showed activity. The list shows a part of the results.
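Also: static incubation at 37 °C against the wild-type strain, values averaged over two biological replicates.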

Each molecule was assayed on Escherichia coli K-12 BW25113 (assay: relative growth (OD600 normalised to plate interquartile mean) (fraction); higher = less growth inhibition, active = 0.2 or less). Details: 50 µM; LB; incubation time: overnight (16-24 h).
In the case of `C[C@H]1CN([C@@H](C)CO)C(=O)Cc2cc(NS(=O)(=O)c3ccc(F)cc3)ccc2O[C@@H]1CN(C)S(C)(=O)=O`, the relative growth is reported as inactive: 0.927. `C[C@@H]1CN([C@H](C)CO)C(=O)c2cc(-c3cccc(C(=O)N(C)C)c3)cnc2O[C@@H]1CN(C)S(=O)(=O)c1ccccc1` was tested, and the relative growth was inactive: 0.987. `NCc1cnc2ccccc2c1` was tested, and the relative growth was inactive: 1.01. In the case of `C[C@@H]1CN([C@@H](C)CO)C(=O)c2cc(NC(=O)Nc3ccc(C(F)(F)F)cc3)ccc2O[C@@H](C)CCCCO[C@@H]1CN(C)Cc1ccccc1`, the relative growth is reported as inactive: 1.02. With `CC(C)CNC(=O)[C@@H]1c2ccccc2C(=O)N(Cc2ccccc2C(F)(F)F)[C@H]1c1ccc(CO)cc1` the relative growth was inactive: 0.984. `C[C@H]1CN([C@@H](C)CO)C(=O)c2cccc(NS(=O)(=O)c3ccc(Cl)cc3)c2O[C@H]1CN(C)Cc1ccc(Oc2ccccc2)cc1` was tested, and the relative growth was inactive: 0.961. In the case of `COc1cc(C=CC(=O)C=C(O)C=Cc2ccc(O)c(OC)c2)ccc1O`, the relative growth is reported as inactive: 1.1. For `Cc1cc(C(=O)Nc2cccc3c2O[C@@H](CN(C)C(=O)Nc2ccc4c(c2)OCO4)[C@@H](C)CN([C@H](C)CO)C3=O)n(C)n1`, the relative growth was inactive: 0.994. With `C[C@@H]1CN([C@H](C)CO)C(=O)c2cc(NC(=O)Nc3ccccc3)ccc2O[C@@H](C)CCCCO[C@H]1CN(C)C(=O)NC1CCCCC1` the relative growth was inactive: 0.939. In the case of `CO[C@@H](CN(C)S(=O)(=O)c1cn(C)cn1)[C@@H](C)CN(C(=O)Nc1ccc(C(F)(F)F)cc1)[C@@H](C)CO`, the relative growth is reported as inactive: 0.87. `CN1CCN(C(=O)C[C@H]2CC[C@H]3[C@@H](COC[C@H](O)CN3S(=O)(=O)c3cccc(Cl)c3)O2)CC1` was tested, and the relative growth was inactive: 1.02. With `C[C@H]1CNC(=O)O1` the relative growth was inactive: 1.01. For `Cc1ccc(S(=O)(=O)Nc2ccc3c(c2)C(=O)N([C@H](C)CO)C[C@H](C)[C@H](CN(C)C(=O)Cc2ccccc2)OCCCC[C@@H](C)O3)cc1`, the relative growth was inactive: 1. In the case of `O=C(C[C@H]1CC[C@@H]2[C@H](COC[C@@H](O)CN2S(=O)(=O)c2ccc(F)cc2)O1)NCc1ccc(Cl)c(Cl)c1`, the relative growth is reported as inactive: 1.01. For `COC(CNC(=O)C(=O)NC[C@H]1OCCN1C(=O)c1ccc2c(c1)OCO2)OC`, the relative growth was inactive: 1.02. For `C[C@@H]1CN([C@H](C)CO)C(=O)c2cc(NC(=O)NC3CCCCC3)ccc2O[C@@H](C)CCCCO[C@@H]1CN(C)C(=O)CCC(F)(F)F`, the relative growth was inactive: 0.979. In the case of `C[C@@H]1CCCCO[C@@H](CN(C)C(=O)Nc2ccc(F)cc2)[C@H](C)CN([C@H](C)CO)C(=O)c2cc(NC(=O)CCC(F)(F)F)ccc2O1`, the relative growth is reported as inactive: 1.02. With `C[C@H]1CN([C@@H](C)CO)C(=O)Cc2cc(NC(=O)Nc3ccc(C(F)(F)F)cc3)ccc2O[C@@H]1CN(C)Cc1ccc2c(c1)OCO2` the relative growth was inactive: 0.959. For `COc1ccc(CN(C)C[C@H]2OCCCC[C@H](C)Oc3ccc(NC(=O)Nc4ccc(OC)cc4)cc3C(=O)N([C@@H](C)CO)C[C@H]2C)cc1`, the relative growth was inactive: 0.901. `Cc1noc(C)c1S(=O)(=O)N(C)C[C@@H]1Oc2ccc(NC(=O)Nc3ccccc3)cc2CC(=O)N([C@@H](C)CO)C[C@H]1C` was tested, and the relative growth was inactive: 0.936. With `Cc1noc(C)c1NC(=O)Nc1ccc2c(c1)CC(=O)N([C@H](C)CO)C[C@H](C)[C@@H](CN(C)C(=O)Nc1cccc3ccccc13)O2` the relative growth was inactive: 1.05. With `NS(=O)(=O)c1cc2c(cc1Cl)NC(C(Cl)Cl)NS2(=O)=O` (configuration not stated) the relative growth was inactive: 1.01. For `NC(=S)NCCC[C@H](N)C(=O)O`, the relative growth was inactive: 1.01. `COc1ccc(S(=O)(=O)N(C)C[C@@H]2Oc3ccc(NS(=O)(=O)c4cccs4)cc3C(=O)N([C@H](C)CO)C[C@H]2C)cc1` was tested, and the relative growth was inactive: 0.992. For `C[C@@H]1CCCCO[C@H](CN(C)Cc2ccc3c(c2)OCO3)[C@H](C)CN([C@H](C)CO)C(=O)c2cc(NC(=O)CCC(F)(F)F)ccc2O1`, the relative growth was inactive: 0.996. `C[C@@H]1CCCCO[C@@H](CN(C)S(=O)(=O)c2cn(C)cn2)[C@H](C)CN([C@@H](C)CO)C(=O)c2cc(NS(C)(=O)=O)ccc2O1` was tested, and the relative growth was inactive: 0.992. `Cc1ccc(S(=O)(=O)N(C)C[C@H]2Oc3ncc(C#CC4(O)CCCC4)cc3C(=O)N([C@H](C)CO)C[C@@H]2C)cc1` was tested, and the relative growth was inactive: 1.02. For `CON=C(C(=O)N[C@@H]1C(=O)N2C(C(=O)OCOC(=O)C(C)(C)C)=C(C=Cc3scnc3C)CS[C@H]12)c1csc(N)n1`, the relative growth was active: 0.0386. With `CCCCCCCCCCCCCCCCCCCCCCO` the relative growth was inactive: 0.979. In the case of `C[C@@H]1CCCCO[C@H](CN(C)C(=O)Nc2cccc3ccccc23)[C@H](C)CN([C@@H](C)CO)C(=O)c2cc(NS(=O)(=O)c3cn(C)cn3)ccc2O1`, the relative growth is reported as inactive: 0.994. With `NCCc1cnc[nH]1` the relative growth was inactive: 1.02. `O=C(NCCN1CCOCC1)C(=O)Nc1cc2c3c(c1)CCN3C(=O)CC2` was tested, and the relative growth was inactive: 0.958. In the case of `C[C@@H]1CN([C@H](C)CO)C(=O)Cc2cc(NC(=O)Nc3cccc4ccccc34)ccc2O[C@@H]1CN(C)C(=O)Nc1ccc(F)cc1`, the relative growth is reported as inactive: 1.03. `CC(C)CC#Cc1cnc2c(c1)C(=O)N([C@H](C)CO)C[C@@H](C)[C@H](CN(C)S(=O)(=O)c1ccccc1)O2` was tested, and the relative growth was inactive: 1.03. `Nc1cc(F)ccc1CO` was tested, and the relative growth was inactive: 0.992. In the case of `C=CCN1C(=O)[C@@]2(O[C@@H](CCO)[C@H]([Si](C)(C)c3ccc(OC)cc3)[C@H]2C)c2cc(N(C=O)c3ccccc3)ccc21`, the relative growth is reported as inactive: 0.992. In the case of `Cc1noc(C)c1NC(=O)N(C)C[C@@H]1Oc2c(NC(=O)Nc3ccc(C(F)(F)F)cc3)cccc2C(=O)N([C@H](C)CO)C[C@H]1C`, the relative growth is reported as inactive: 0.993. `COc1ccc(S(=O)(=O)N(C)C[C@@H]2Oc3ncc(Br)cc3C(=O)N([C@H](C)CO)C[C@@H]2C)cc1` was tested, and the relative growth was inactive: 0.98. In the case of `Cc1noc(C)c1S(=O)(=O)Nc1ccc2c(c1)CC(=O)N([C@@H](C)CO)C[C@@H](C)[C@H](CN(C)C(=O)Nc1ccccc1)O2`, the relative growth is reported as inactive: 0.992. With `CCO/N=[N+](\[O-])N1CCCC1` the relative growth was inactive: 1.01. For `C[C@@H]1CN([C@H](C)CO)S(=O)(=O)c2ccc(C#CCN(C)C)cc2O[C@H]1CN(C)Cc1ccncc1`, the relative growth was inactive: 0.959. With `C[C@@H]1CN([C@@H](C)CO)C(=O)c2cc(NS(=O)(=O)c3ccccc3)ccc2O[C@@H]1CN(C)S(C)(=O)=O` the relative growth was inactive: 0.946. For `Cc1noc(C)c1S(=O)(=O)Nc1ccc2c(c1)CC(=O)N([C@@H](C)CO)C[C@H](C)[C@H](CN(C)C(=O)NC(C)C)O2`, the relative growth was inactive: 0.984. `CC(=O)NC(Cc1ccccc1)C(=O)O` (configuration not stated) was tested, and the relative growth was inactive: 0.859. With `Cc1noc(C)c1NC(=O)Nc1ccc2c(c1)C(=O)N([C@@H](C)CO)C[C@@H](C)[C@H](CN(C)C(=O)Nc1ccc3c(c1)OCO3)OCCCC[C@@H](C)O2` the relative growth was inactive: 0.994. In the case of `COCC#Cc1cnc2c(c1)C(=O)N([C@H](C)CO)C[C@H](C)[C@@H](CN(C)C(=O)Nc1ccc(OC)cc1)O2`, the relative growth is reported as inactive: 1.01. In the case of `COc1ccc(NC(=O)N(C)C[C@@H]2Oc3ccc(NC(=O)CCN4CCOCC4)cc3C(=O)N([C@@H](C)CO)C[C@H]2C)cc1`, the relative growth is reported as inactive: 0.974. With `COc1ccc(O)cc1` the relative growth was inactive: 1. `Cc1ccc(S(=O)(=O)Nc2ccc3c(c2)C(=O)N([C@H](C)CO)C[C@H](C)[C@@H](CN(C)S(=O)(=O)c2ccc(C)cc2)OCCCC[C@@H](C)O3)cc1` was tested, and the relative growth was inactive: 0.988. With `COc1ccc(S(=O)(=O)N(C)C[C@@H]2OCCCC[C@@H](C)Oc3ccc(NC(=O)Nc4ccc(C(F)(F)F)cc4)cc3C(=O)N([C@H](C)CO)C[C@@H]2C)cc1` the relative growth was inactive: 1.02. In the case of `COc1ccc(NC(=O)N(C)C[C@@H]2Oc3ccc(NC(=O)CCCCCC(=O)Nc4ccccc4N)cc3C(=O)N([C@H](C)CO)C[C@@H]2C)cc1`, the relative growth is reported as inactive: 0.901. For `COc1ccc(CN(C)C[C@H]2OCCCC[C@H](C)Oc3ccc(NS(=O)(=O)c4ccc(OC)cc4)cc3C(=O)N([C@@H](C)CO)C[C@H]2C)cc1`, the relative growth was inactive: 1.02. For `CN1CCN(C(=O)C[C@H]2CC[C@@H]3[C@H](COC[C@@H](O)CN3S(=O)(=O)c3cccc(Cl)c3)O2)CC1`, the relative growth was inactive: 1.03. In the case of `C[C@@H]1CN([C@H](C)CO)S(=O)(=O)c2ccc(-c3ccc(C(=O)N(C)C)cc3)cc2O[C@@H]1CN(C)C(=O)C1CC1`, the relative growth is reported as inactive: 1. In the case of `C[C@H]1CN([C@@H](C)CO)C(=O)Cc2cc(NC(=O)Nc3cccc4ccccc34)ccc2O[C@H]1CN(C)Cc1ccc(Oc2ccccc2)cc1`, the relative growth is reported as inactive: 1.04. With `Cc1noc(C)c1S(=O)(=O)Nc1ccc2c(c1)C(=O)N([C@@H](C)CO)C[C@H](C)[C@@H](CN(C)C(=O)Nc1ccc(F)cc1)OCCCC[C@H](C)O2` the relative growth was inactive: 1.03. With `CC(C)CC#Cc1ccc2c(c1)O[C@@H](CN(C)S(=O)(=O)c1ccc(F)cc1)[C@@H](C)CN([C@H](C)CO)S2(=O)=O` the relative growth was inactive: 1.04. `Cc1noc(C)c1S(=O)(=O)N(C)C[C@@H]1Oc2ccc(NC(=O)Nc3ccccc3)cc2C(=O)N([C@@H](C)CO)C[C@@H]1C` was tested, and the relative growth was inactive: 0.986. `C[C@@H]1CCCCO[C@H](CN(C)Cc2ccc(C(=O)O)cc2)[C@H](C)CN([C@H](C)CO)C(=O)c2cc(NC(=O)c3ccccc3)ccc2O1` was tested, and the relative growth was inactive: 0.998. `C[C@H](CO)N1C[C@H](C)[C@H](CN(C)C(=O)Nc2ccccc2F)Oc2ncc(C#CCN(C)C)cc2C1=O` was tested, and the relative growth was inactive: 1.03. For `COC(=O)c1ccc(C(=O)OC)c(N)c1`, the relative growth was inactive: 0.93. In the case of `COc1ccc(S(=O)(=O)N(C)C[C@H]2Oc3c(NS(=O)(=O)c4c(C)noc4C)cccc3C(=O)N([C@@H](C)CO)C[C@@H]2C)cc1`, the relative growth is reported as inactive: 0.989.
